Data as given in patent US20260216242A1, “ALPP-SPECIFIC VARIANT ANTIGEN BINDING MOLECULES” (ALMAC DISCOVERY LIMITED, priority 2022, published 2026).
Numbering of substitutions follows the chain as printed. In names and notes the source's numbering stands.

What was measured:
[1] = biological target: T1, mouse ALPPL2 (Mus musculus, UniProt P24823); experiment: BLI cross-species reactivity, mouse ALPPL2; format: binding; conditions: VHH-hFc; for mALPPL2 KD: KD apparent; for mALPPL2 Ka / mALPPL2 Kd: KD apparent format
T1 construct: made in house
Experimental: (§1) Binding kinetics were determined using the Biolayer Interferometry (BLI) Octet K2 or R4 system (Sartorius). Human ALPP, ALPPL2 and ALPL all fused with a disulphide stabilised leucine zipper (SEQ ID NO: 265, SEQ ID NO: 266, and SEQ ID NO: 267) and ALPI His (SEQ ID NO: 264) were used in BLI experiments. For KD apparent measurements, the ALPP proteins were immobilised in sodium acetate pH5 buffer to AR2G sensors using amine coupling. To measure 1:1 interactions, AHC biosensors were used to immobilise Fc-fused proteins. All assays were conducted in HBS-EP with a plate temperature of 25° C. Ka (M^−1s^−1), Kd (s^−1) and KD (nM) values were determined using Octet Data Analysis High Throughput software (Sartorius) for Biolayer Interferometry.
(§2) To assess cross-species reactivity of the ALPP/ALPPL2 targeting VHH-hFc fusions, BLI was conducted using mouse ALPPL2 (NCBI #NP_031459), rhesus monkey ALPP (NCBI #XP_028687061) and cynomolgus monkey ALPP (NCBI #XP_045223825). Each of these were expressed as cysteine-stabilised leucine zipper fusions (SEQ ID NO: 271, SEQ ID NO: 272 and SEQ ID NO: 273). BLI was conducted as described above.

[2] = biological target: hALPL (Homo sapiens, UniProt P05186); experiment: BLI binding to human ALPL; conditions: VHH-hFc
Experimental: (§3) Binding kinetics were determined using the Biolayer Interferometry (BLI) Octet K2 system (Sartorius). Human ALPP, ALPPL2, ALPL (each fused with a cysteine stabilised leucine zipper) and ALPI, (SEQ ID NO: 265, SEQ ID NO: 266 and SEQ ID NO: 267 and SEQ ID NO: 264 respectively) were immobilised in sodium acetate pH5 buffer to AR2G sensors using amine coupling. All assays were conducted in PBS with a plate temperature of 25° C. Ka (M^−1s^−1), Kd (s^−1) and KD (nM) values were determined using Octet Data Analysis High Throughput software (ForteBio) for Biolayer Interferometry.
as §1
as §1, with “NO:264)” for “NO: 264)”

[3] = tested on: rhesus monkey ALPP; experiment: BLI cross-species reactivity, rhesus monkey ALPP; format: binding; conditions: VHH-hFc; for rmALPP Ka / rmALPP Kd: KD apparent format
Experimental: as §1, §2

[4] = biological target: ALPP (Homo sapiens, UniProt P05187); experiment: BLI binding kinetics, human ALPP immobilised on AR2G sensors (KD / KD apparent); conditions: VHH-hFc, KD apparent format
Experimental: as §3, §1
as §1, with “NO:264)” for “NO: 264)”

[5] = biological target: Human ALPPL2 (Homo sapiens, UniProt P10696); experiment: BLI binding kinetics, human ALPPL2 immobilised on AR2G sensors (KD / KD apparent); conditions: VHH-hFc, KD apparent format
Experimental: as §3, §1
as §1, with “NO:264)” for “NO: 264)”

T1 sequence (P24823 with tags, fused parts or gaps): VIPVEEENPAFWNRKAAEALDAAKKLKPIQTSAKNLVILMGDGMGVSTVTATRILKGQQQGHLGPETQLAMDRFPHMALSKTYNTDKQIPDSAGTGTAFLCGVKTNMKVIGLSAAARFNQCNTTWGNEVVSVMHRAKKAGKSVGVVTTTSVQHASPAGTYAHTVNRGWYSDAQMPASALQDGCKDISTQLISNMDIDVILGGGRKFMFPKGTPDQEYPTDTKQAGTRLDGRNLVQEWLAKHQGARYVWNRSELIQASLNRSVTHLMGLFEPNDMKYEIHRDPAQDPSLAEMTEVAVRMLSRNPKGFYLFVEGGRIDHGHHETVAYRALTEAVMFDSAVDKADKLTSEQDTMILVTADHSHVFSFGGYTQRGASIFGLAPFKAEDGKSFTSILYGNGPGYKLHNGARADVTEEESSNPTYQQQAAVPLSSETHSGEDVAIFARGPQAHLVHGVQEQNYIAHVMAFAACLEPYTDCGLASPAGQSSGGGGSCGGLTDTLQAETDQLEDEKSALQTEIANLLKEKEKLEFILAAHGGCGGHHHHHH
Sequence of hALPL (P05186 with tags, fused parts or gaps): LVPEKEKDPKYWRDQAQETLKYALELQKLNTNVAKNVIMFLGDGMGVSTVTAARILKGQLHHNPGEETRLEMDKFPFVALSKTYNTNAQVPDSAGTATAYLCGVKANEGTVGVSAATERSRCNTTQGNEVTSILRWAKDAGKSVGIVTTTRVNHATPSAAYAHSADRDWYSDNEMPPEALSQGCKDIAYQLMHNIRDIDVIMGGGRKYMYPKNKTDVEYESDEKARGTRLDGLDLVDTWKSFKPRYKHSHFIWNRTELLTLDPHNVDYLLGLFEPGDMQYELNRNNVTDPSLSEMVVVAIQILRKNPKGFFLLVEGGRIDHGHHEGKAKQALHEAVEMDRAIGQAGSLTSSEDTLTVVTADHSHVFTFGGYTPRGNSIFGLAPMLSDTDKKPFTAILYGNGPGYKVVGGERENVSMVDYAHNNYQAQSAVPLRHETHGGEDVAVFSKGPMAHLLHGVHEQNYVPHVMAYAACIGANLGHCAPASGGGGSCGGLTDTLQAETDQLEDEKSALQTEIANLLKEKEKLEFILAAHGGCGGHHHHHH
Sequence of Human ALPPL2 (P10696 with tags, fused parts or gaps): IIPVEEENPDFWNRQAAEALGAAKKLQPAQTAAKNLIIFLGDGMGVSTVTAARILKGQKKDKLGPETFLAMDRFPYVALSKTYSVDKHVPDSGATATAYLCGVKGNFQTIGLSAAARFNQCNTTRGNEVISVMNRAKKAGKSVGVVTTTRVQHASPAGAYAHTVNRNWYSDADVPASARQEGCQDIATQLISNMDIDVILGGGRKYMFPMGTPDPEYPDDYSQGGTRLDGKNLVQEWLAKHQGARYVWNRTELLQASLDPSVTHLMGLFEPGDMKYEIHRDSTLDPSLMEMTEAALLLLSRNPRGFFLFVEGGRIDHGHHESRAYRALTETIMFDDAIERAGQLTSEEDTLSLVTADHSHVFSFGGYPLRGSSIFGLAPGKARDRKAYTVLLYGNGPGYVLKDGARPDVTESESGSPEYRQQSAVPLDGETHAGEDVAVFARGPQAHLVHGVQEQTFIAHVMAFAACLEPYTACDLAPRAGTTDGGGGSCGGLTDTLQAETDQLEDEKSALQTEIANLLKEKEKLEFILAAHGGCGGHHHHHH
Sequence of UniProt P05187 (P05187 with tags, fused parts or gaps): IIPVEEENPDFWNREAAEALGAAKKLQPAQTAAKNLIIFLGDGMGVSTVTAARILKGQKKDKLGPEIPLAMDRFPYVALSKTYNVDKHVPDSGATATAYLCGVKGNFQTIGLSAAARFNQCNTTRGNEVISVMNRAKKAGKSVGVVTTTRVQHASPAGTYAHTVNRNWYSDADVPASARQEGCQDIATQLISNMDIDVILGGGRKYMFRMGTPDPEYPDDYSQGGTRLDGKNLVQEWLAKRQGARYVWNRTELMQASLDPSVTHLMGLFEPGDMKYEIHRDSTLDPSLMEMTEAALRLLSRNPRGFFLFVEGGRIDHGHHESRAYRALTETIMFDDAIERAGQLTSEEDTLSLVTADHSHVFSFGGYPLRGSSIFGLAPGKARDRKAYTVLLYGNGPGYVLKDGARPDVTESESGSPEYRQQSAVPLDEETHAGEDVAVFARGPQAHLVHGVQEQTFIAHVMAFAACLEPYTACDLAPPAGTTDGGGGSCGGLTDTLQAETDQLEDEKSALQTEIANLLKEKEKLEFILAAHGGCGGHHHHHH

| Molecule | mALPPL2 KD [1] | hALPL [2] | rmALPP Ka [3] | rmALPP Kd [3] | hALPP Ka [4] | hALPP Kd [4] | hALPPL2 Ka [5] | hALPPL2 Kd [5] | mALPPL2 Ka [1] | mALPPL2 Kd [1] | Kd ([3]; KD apparent, read-out: rmALPP KD) |
| --- | --- | --- | --- | --- | --- | --- | --- | --- | --- | --- | --- |
| B01-hFc (S239C): B01 VHH fused via [G4S]3 linker to human IgG1 Fc with S239C (protein) QVQLVESGGGLVQAGGSLRLSCEVTRSPMPIDTMAWYRQAPGRQRELVAIISRSGSTNYADSVKGRFTISRNDTKSTMYKSTMYLKMNTLELEDTGVYYCNAVGLWNGAEYWGQGTQVTVSSGGGGSGGGGSGGGGS[human IgG1 Fc with changes not spelt out] | No Binding | No binding | 194000 M⁻¹ s⁻¹ | 0.00000481 s⁻¹ | 140000 M⁻¹ s⁻¹ | <1e-07 s⁻¹ | 308000 M⁻¹ s⁻¹ | 0.00000618 s⁻¹ |  |  |  |
| C07-hFc (S239C): C07 VHH fused via [G4S]3 linker to human IgG1 Fc with S239C (protein) QVQLVESGGGLVQAGESLRLACAASGTIFSGNAVGWYRQAPEKQREWVSSITDYGDTDYAEAVKGRFTISRDNAKNTVYLQMNSLKPEDTAVYYCYVYQRGESEEYWGQGTQVTVSSGGGGSGGGGSGGGGS[human IgG1 Fc with changes not spelt out] | No Binding | No binding | 667000 M⁻¹ s⁻¹ | 0.000481 s⁻¹ | 151000 M⁻¹ s⁻¹ | <1e-07 s⁻¹ | 253000 M⁻¹ s⁻¹ | 0.000114 s⁻¹ |  |  |  |
| D10-hFc (S239C): D10 VHH fused via [G4S]3 linker to human IgG1 Fc with S239C (SEQ ID NO: 98) (protein) QVQLVESGGGLVQPGGSLRLSCAASGSIFSVNTMGWYRQAPGKQRDLVAVATSGGTIHYADSVKGRFTISRDNAKNTVYLQMNSLKPEDTAVYYCNLVVPYGMIAGDHDYWGQGTKVTVSSGGGGSGGGGSGGGGS[human IgG1 Fc with changes not spelt out] | No Binding | No binding | 126000 M⁻¹ s⁻¹ | <1e-07 s⁻¹ | 160000 M⁻¹ s⁻¹ | 0.0000108 s⁻¹ | 187000 M⁻¹ s⁻¹ | 0.00186 s⁻¹ |  |  |  |
| E06-hFc (S239C): E06 VHH fused via [G4S]3 linker to human IgG1 Fc with S239C (SEQ ID NO: 99) (protein) QVHLVESGGGLVQAGGSLRLSCAASRRSFSEYAMGWFRQAPGKEREFVAAIGWSGVIEYADSVKGRFTISRDNAKDTVYLQMNSLKPEDTAVYYCAAGLGIRVVSQTPAYWGQGTQVTVSSGGGGSGGGGSGGGGS[human IgG1 Fc with changes not spelt out] | No Binding | No binding | 752000 M⁻¹ s⁻¹ | <1e-07 s⁻¹ | 321000 M⁻¹ s⁻¹ | 0.0000122 s⁻¹ | 688000 M⁻¹ s⁻¹ | <1e-07 s⁻¹ |  |  |  |
| E10-hFc (S239C): E10 VHH fused via [G4S]3 linker to human IgG1 Fc with S239C (SEQ ID NO: 100) (protein) QVQLVESGGGLVQAGGSLRLSCAVSGRALSDYNIGWFRQAPGKEREFVARKTWDGSSTRYDDSVKGRFTVSIEDAKNTAYLQMSSLKTEDTAVYYCAAGRYSRARGWEYDYWGQGTQVTVSSGGGGSGGGGSGGGGS[human IgG1 Fc with changes not spelt out] |  | No binding | 544000 M⁻¹ s⁻¹ | <1e-07 s⁻¹ | 382000 M⁻¹ s⁻¹ | 0.00000469 s⁻¹ | 288000 M⁻¹ s⁻¹ | <1e-07 s⁻¹ | 1620000 M⁻¹ s⁻¹ | 0.0042 s⁻¹ |  |
| F05-hFc (S239C): F05 VHH fused via [G4S]3 linker to human IgG1 Fc with S239C (SEQ ID NO: 101) (protein) QVQLVESGGGLVQAGGSLRLSCAASGRAFGDYNIGWFRQAPGKEREFVARRTWDGSSTRYDDSVKGRFTVSIDNAKNTAYLQMNSLKTEDTAVYYCAAGRYSRVRGWEYDYWGQGTQVTVSSGGGGSGGGGSGGGGS[human IgG1 Fc with changes not spelt out] |  | No binding | 1030000 M⁻¹ s⁻¹ | 0.0000869 s⁻¹ | 330000 M⁻¹ s⁻¹ | 0.0000206 s⁻¹ | 350000 M⁻¹ s⁻¹ | 0.0000106 s⁻¹ | 3910000 M⁻¹ s⁻¹ | 0.00228 s⁻¹ | 0.276 nM |
| A06-hFc (S239C): A06 VHH fused via [G4S]3 linker to human IgG1 Fc with S239C (SEQ ID NO: 97) (protein) QVHLVESGGGLVQAGGSLRLSCAASGRTFLSMGWFRQAPGKEREFVAAISWTGGSTGYADSVKGRFTISRESDKETMYLQMNSLKPEDTAVYYCAARGDVYYGGDDATRYKYWGQGTQVTVSSGGGGSGGGGSGGGGS[human IgG1 Fc with changes not spelt out] |  | No binding | 228000 M⁻¹ s⁻¹ | <1e-07 s⁻¹ | 203000 M⁻¹ s⁻¹ | 0.00000018 s⁻¹ | 368000 M⁻¹ s⁻¹ | 0.000215 s⁻¹ | 392000 M⁻¹ s⁻¹ | 0.0000182 s⁻¹ |  |
